# Assay results: the supplement of paper PMC8728848
# This is one part of the list.
# B1: PX9961X-pdi-531-24-531 (Parabacteroides distasonis) (protein)
# chain: DLTEEIHSSVIAENYYNNAGEVMAAMMRPWGHFCGTMQVAQSPWSCNELSSDCAAWPQKGRHGYDNGDWIRLHRHQWIPTDGQVVDAWKKLFEGIGYANNFLTDTENIDFEALQVPMSKAQAQAEMRVYRAYCYWYVMDMFGTAPICEKIGEINPSSKSRAELFAWIEKELNESIPSLSESKTETYGRVSKWGAYALLARLYLNAEIYTGQARWDDCIAACDELAKGGFALDKKWNDTFRADNDKRSTEIIWSIVYDEVYAKGMGWYQRWLHYAHQTGWDLQSGPWNGLVTQPTFYDSFADNDLRKIEGFLIGKQYPRKVDENGNYYYDTTAEPLKGSEEYNGQDLVFVNYIKSMTEGEENSGARSIKYEIQPGTTGDMNNDWVMFRYSEVIYNKAEALMRKNGGKATQEVVDMINSVRQRSFKAEDWEKAKYTTATLTMDEFLAEKGREFAFEGIRRTDLVRFNKFVTTSWWDKTASNEPKRNIFPIPQRQLDANANLSPNEANSLF
# How the values were obtained:
# Assay in all cases: glycan array binding signal (z-score within array); higher = stronger binding
# Settings in all cases: glycan notation: IUPAC condensed, linker removed
# [1] = molecular target: Neu5Ac(a2-8)Neu5Ac
# Outline: (§1)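 From the Consortium for Functional Glycomics database, 3228 arrays were curated, keeping only those whose protein sequence was available. Binding is given as a within-array Z-score averaged across arrays sharing a protein sequence and across linkers. Negative Z-scores can be read as non-binding.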
# [2] = molecular target: Neu5Ac(a2-8)Neu5Ac(a2-3)Gal(b1-3)GalNAc(b1-4)[Neu5Ac(a2-3)]Gal(b1-4)Glc
# Outline: as §1
# [3] = molecular target: Neu5Ac(a2-8)Neu5Ac(a2-3)Gal(b1-3)GalNAc(b1-4)[Neu5Ac(a2-8)Neu5Ac(a2-3)]Gal(b1-4)Glc
# Outline: as §1
# [4] = molecular target: Neu5Ac(a2-8)Neu5Ac(a2-3)Gal(b1-4)Glc
# Outline: as §1
# [5] = molecular target: Neu5Ac(a2-8)Neu5Ac(a2-3)Gal(b1-4)GlcNAc
# Outline: as §1
# [6] = molecular target: Neu5Ac(a2-8)Neu5Ac(a2-3)[Gal(b1-3)GalNAc(b1-4)]Gal(b1-4)Glc
# Outline: as §1
# [7] = molecular target: Neu5Ac(a2-8)Neu5Ac(a2-3)[GalNAc(b1-4)]Gal(b1-4)Glc
# Outline: as §1
# [8] = molecular target: Neu5Ac(a2-8)Neu5Ac(a2-8)Neu5Ac
# Outline: as §1
# [9] = molecular target: Neu5Ac(a2-8)Neu5Ac(a2-8)Neu5Ac(a2-3)Gal(b1-4)Glc
# Outline: as §1
# [10] = molecular target: Neu5Ac(a2-8)Neu5Ac(a2-8)Neu5Ac(a2-3)[Gal(b1-3)GalNAc(b1-4)]Gal(b1-4)Glc
# Outline: as §1
# [11] = molecular target: Neu5Ac(a2-8)Neu5Ac(a2-8)Neu5Ac(a2-3)[GalNAc(b1-4)]Gal(b1-4)Glc
# Outline: as §1
# [12] = molecular target: Neu5Ac(a2-8)Neu5Ac(a2-8)Neu5Ac(a2-8)Neu5Ac(a2-3)[GalNAc(b1-4)]Gal(b1-4)Glc
# Outline: as §1
# [13] = molecular target: Neu5Ac(a2-8)Neu5Gc(a2-3)Gal(b1-4)GlcNAc
# Outline: as §1
# [14] = molecular target: Neu5Ac(b2-6)Gal(b1-4)GlcNAc
# Outline: as §1
# [15] = molecular target: Neu5Ac(b2-6)GalNAc
# Outline: as §1
# [16] = molecular target: Neu5Ac9Ac(a2-3)Gal(b1-3)GlcNAc
# Outline: as §1
# [17] = molecular target: Neu5Ac9Ac(a2-3)Gal(b1-4)GlcNAc
# Outline: as §1
# [18] = molecular target: Neu5Ac9Ac(a2-6)Gal(b1-4)GlcNAc
# Outline: as §1
# [19] = molecular target: Neu5Gc(a2-3)Gal(b1-3)GlcNAc
# Outline: as §1
# [20] = molecular target: Neu5Gc(a2-3)Gal(b1-3)[Fuc(a1-4)]GlcNAc
# Outline: as §1
# [21] = molecular target: Neu5Gc(a2-3)Gal(b1-4)Glc
# Outline: as §1
# [22] = molecular target: Neu5Gc(a2-3)Gal(b1-4)GlcNAc
# Outline: as §1
# [23] = molecular target: Neu5Gc(a2-3)Gal(b1-4)GlcNAc(b1-3)Gal(b1-4)GlcNAc(b1-2)Man(a1-3)[Neu5Gc(a2-3)Gal(b1-4)GlcNAc(b1-3)Gal(b1-4)GlcNAc(b1-2)Man(a1-6)]Man(b1-4)GlcNAc(b1-4)GlcNAc
# Outline: as §1
# [24] = molecular target: Neu5Gc(a2-3)Gal(b1-4)[Fuc(a1-3)]GlcNAc
# Outline: as §1
# [25] = molecular target: Neu5Gc(a2-6)Gal(b1-4)GlcNAc
# Outline: as §1
# [26] = molecular target: Neu5Gc(a2-6)GalNAc
# Outline: as §1
# [27] = molecular target: Neu5Gc(a2-8)Neu5Ac(a2-3)Gal(b1-4)GlcNAc
# Outline: as §1
# [28] = molecular target: Neu5Gc(a2-8)Neu5Gc(a2-3)Gal(b1-4)GlcNAc
# Outline: as §1
# [29] = molecular target: Neu5Gc(a2-8)Neu5Gc(a2-3)Gal(b1-4)GlcNAc(b1-3)Gal(b1-4)GlcNAc
# Outline: as §1
# [30] = molecular target: Neu5Gc(a2-8)Neu5Gc(a2-6)Gal(b1-4)GlcNAc
# Outline: as §1
# [31] = molecular target: Neu5Gc(b2-6)Gal(b1-4)GlcNAc
# Outline: as §1
binder,measurement,setting,value
B1,glycan array binding signal (z-score),[1],-0.38
same,glycan array binding signal (z-score),[2],0.572
same,glycan array binding signal (z-score),[3],-0.72
same,glycan array binding signal (z-score),[4],-0.472
same,glycan array binding signal (z-score),[5],-0.116
same,glycan array binding signal (z-score),[6],-0.002
same,glycan array binding signal (z-score),[7],0.005
same,glycan array binding signal (z-score),[8],-0.468
same,glycan array binding signal (z-score),[9],-0.747
same,glycan array binding signal (z-score),[10],-0.475
same,glycan array binding signal (z-score),[11],0.243
same,glycan array binding signal (z-score),[12],-0.294
same,glycan array binding signal (z-score),[13],14.4
same,glycan array binding signal (z-score),[14],0.837
same,glycan array binding signal (z-score),[15],0.643
same,glycan array binding signal (z-score),[16],-0.852
same,glycan array binding signal (z-score),[17],0.639
same,glycan array binding signal (z-score),[18],-0.032
same,glycan array binding signal (z-score),[19],-0.815
same,glycan array binding signal (z-score),[20],-0.094
same,glycan array binding signal (z-score),[21],-0.594
same,glycan array binding signal (z-score),[22],-1
same,glycan array binding signal (z-score),[23],-0.117
same,glycan array binding signal (z-score),[24],-0.648
same,glycan array binding signal (z-score),[25],0.505
same,glycan array binding signal (z-score),[26],-0.693
same,glycan array binding signal (z-score),[27],-0.389
same,glycan array binding signal (z-score),[28],-0.231
same,glycan array binding signal (z-score),[29],-0.598
same,glycan array binding signal (z-score),[30],-0.544
same,glycan array binding signal (z-score),[31],-0.272
